Experimental data from PMC4336329 (PLoS ONE, 2015).
About 2,200 (0.71%) of roughly 310,000 compounds showed an effect of 50% or more. The effect is printed as a negative number. The list shows a part of the results.

The compounds below were run against human ether-à-go-go-related gene (hERG) potassium channel (human, UniProt Q12809) (assay: primary screen, population patch clamp on CHO cells stably expressing hERG).
Sequence of human ether-à-go-go-related gene (hERG) potassium channel (Q12809 whole entry, looked up): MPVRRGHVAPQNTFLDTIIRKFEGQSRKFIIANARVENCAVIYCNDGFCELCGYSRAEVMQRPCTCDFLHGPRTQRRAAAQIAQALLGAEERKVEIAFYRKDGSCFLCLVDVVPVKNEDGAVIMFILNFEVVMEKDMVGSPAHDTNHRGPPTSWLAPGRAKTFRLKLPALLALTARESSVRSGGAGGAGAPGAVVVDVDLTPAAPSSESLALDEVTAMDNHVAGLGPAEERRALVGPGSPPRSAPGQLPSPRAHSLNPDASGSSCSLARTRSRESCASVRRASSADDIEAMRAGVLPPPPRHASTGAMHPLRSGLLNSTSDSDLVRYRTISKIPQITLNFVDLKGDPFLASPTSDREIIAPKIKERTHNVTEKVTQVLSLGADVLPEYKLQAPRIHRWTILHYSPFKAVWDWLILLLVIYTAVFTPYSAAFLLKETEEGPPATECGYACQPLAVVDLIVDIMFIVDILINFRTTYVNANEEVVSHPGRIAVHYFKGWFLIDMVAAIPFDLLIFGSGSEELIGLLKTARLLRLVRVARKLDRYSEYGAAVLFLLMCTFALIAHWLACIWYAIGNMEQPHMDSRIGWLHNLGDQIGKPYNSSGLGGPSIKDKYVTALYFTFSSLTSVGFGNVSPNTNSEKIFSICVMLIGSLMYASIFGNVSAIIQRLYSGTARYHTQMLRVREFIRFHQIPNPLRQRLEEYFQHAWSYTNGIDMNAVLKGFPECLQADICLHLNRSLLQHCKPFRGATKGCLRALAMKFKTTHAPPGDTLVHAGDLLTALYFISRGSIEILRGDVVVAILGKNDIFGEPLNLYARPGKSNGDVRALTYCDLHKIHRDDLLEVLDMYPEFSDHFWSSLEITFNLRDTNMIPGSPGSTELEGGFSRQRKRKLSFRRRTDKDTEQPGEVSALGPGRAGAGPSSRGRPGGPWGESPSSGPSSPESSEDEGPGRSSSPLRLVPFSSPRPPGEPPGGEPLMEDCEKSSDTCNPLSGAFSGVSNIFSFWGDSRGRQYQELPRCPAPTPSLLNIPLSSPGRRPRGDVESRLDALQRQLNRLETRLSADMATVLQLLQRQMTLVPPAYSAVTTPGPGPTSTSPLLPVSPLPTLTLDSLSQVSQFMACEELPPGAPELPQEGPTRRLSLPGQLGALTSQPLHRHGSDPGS

SMILES | hERG current change (%, negative = inhibition) at 1uM [%]
N/C(=N\OC(=O)c1ccccc1Br)c1cccc([N+](=O)[O-])c1 | 12.6
CCOC(=O)c1ccc(NC(=O)Nc2cccc(C)n2)cc1 | 10
N#CC1=C(N)OC2=C(C(=O)CCC2)[C@]12C(=O)N(CC(N)=O)c1ccccc12 | 6.38
CC1NC(=S)N(C2CCCCC2)C1=O (stereo not drawn) | 21
O=C(Nc1cccc(F)c1)Nc1ccnn1C1CCN(C(=O)c2cscn2)CC1 | 9.93
CCOC(=O)C1(CC)NC(c2ccc(OC)c(OC)c2)C2C(=O)N(c3cccc(C(C)=O)c3)C(=O)C21 (stereo not drawn) | 14.2
COC(=O)c1cccc(NC(=O)c2ccc3c(c2)C(=O)N(Cc2cccnc2)C3=O)c1 | 9.79
CCCC(=O)Nc1cccn(Cc2ccccc2Br)c1=O | 11.5
COc1cc(OC)cc(N(C(=O)c2ccco2)C(C(=O)NC2CCCC2)c2ccc(N3CCOCC3)cc2)c1 (stereo not drawn) | 5.53
O=C(CSc1oc(-c2ccco2)nc1S(=O)(=O)c1ccccc1)NCC1CCCO1 (stereo not drawn) | 8.01
CCCCc1c(O)nc(SCC(=O)N2CCOCC2)n(-c2ccccc2OC)c1=O | 10.4
CNC(=O)C12CC3CC(CC(Cl)(C3)C1)C2 | 1.47
CC(C)C[C@@H](CN(C)N=O)N(C[C@H](Cc1ccccc1)N(CCc1ccccc1)N=O)N=O.[Na+] | 0.384
CCC(Sc1nnc(C)s1)C(=O)Nc1nccs1 (stereo not drawn) | 9.94
COc1ccccc1C(C#N)N1N=C(C)CC1c1ccccc1 (stereo not drawn) | 12.4
Cc1nc2ccccn2c1C(=O)CSc1ccccc1 | 8.06
CC(C)(C)C1=CC(=Nc2ccccc2N)C=C(C(C)(C)C)C1=O | 7.66
CCN(Cc1ccccc1)Cc1ccc(OCc2ccccc2)cc1.O=C(O)C(=O)O | 15
O=C(CSc1nc(O)c(C(c2ccccc2)c2ccccc2)c(=O)[nH]1)N1CCOCC1 | 11.3
O=C(NC(=S)Nc1ccc(CN2CCCCC2)cc1)c1cc2ccccc2o1 | 4.43
Cn1c2c(c(=O)n(C)c1=O)CN(Cc1ccc3c(c1)OCO3)CN2 | -3.2
Cc1cc(/C=N/NC(N)=O)c(C)c(CO)c1 | 17.1
COc1ccc(C)cc1NC(=O)CNC(c1ccccc1)c1ccc(C)cc1 (stereo not drawn) | 14.1

SMILES | hERG current change (%, negative = inhibition) at 1uM [%]
CCNC(=O)C1=C(O)c2sccc2N(C)S1(=O)=O | 19.9
Cl.O=C(/C=C/c1ccccc1)N1CCN(CC(O)COc2ccccc2)CC1 (stereo not drawn) | -48.2
COc1ccc2cc(C(=O)C3CCCN(C(=O)c4ccnn4C)C3)ccc2c1 (stereo not drawn) | -8.49
CC1Cc2ccccc2N1C(=O)CSc1ncccc1C(=O)O (stereo not drawn) | 21.7
O=C(Cc1ccccc1[N+](=O)[O-])NCCSCc1c(F)cccc1Cl | 16.4
Cc1n[nH]c(C)c1S(=O)(=O)N(C)Cc1ccco1 | 15.9
COC(=O)NCc1ccc(Cl)c(Cl)c1 | 11.3
O=S1(=O)CC=C(CSc2nc3ccccc3[nH]2)C1 | 13.7
O=[N+]([O-])c1ccc(/C=N/Nc2nc(N3CCCC3)nc(N3CCCC3)n2)o1 | 0.571
CC(=O)c1ccc(N2CCN(S(=O)(=O)c3cn(C)cn3)CC2)cc1 | 16.7
CCOCCn1c(SCC)nc2c1c(=O)[nH]c(=O)n2C | 3.84
Cc1nnc(C)n1/N=C/c1cccs1 | 13.5
CNc1cc(C(F)(F)F)nc(-c2ccccn2)n1 | 18.7
CCOC(=O)Nc1ccc2c(c1)N(C(=O)CN1CCN(CCO)CC1)c1ccccc1CC2.Cl | 12.3
O=C(NC(=S)N1CCCCC1)C12CC3CC(CC(C3)C1)C2 | 20
CC(C)S(=O)(=O)c1csc(NC(=O)Nc2ccc(Cl)cc2)c1Cl | 0.19
COc1ccc(-c2c(C)oc3c(CN4CCCCC4C)c(O)ccc3c2=O)cc1 (stereo not drawn) | 9
CCOC(=O)N1CCC(NC(=O)CCCN2C(=O)CSc3ncccc32)CC1 | 10.2
Clc1ccc(SCCCCN2CCNCC2)cc1.O=C(O)C(=O)O | -8.4
Cc1ccc(N2C(=O)C(Cl)=C(Nc3c(C)n(C)n(-c4ccccc4)c3=O)C2=O)cc1 | 1.61
O=C(Nc1cccc(C(=O)O)c1)Nc1ccc2c(c1)OCO2 | 11.4
CCN(CC)C(=O)Oc1ccc(NC(=O)N2CCOCC2)cc1 | 13.8
